Out of some 280,000 compounds screened, about 100 (0.036%) were called active. Inconclusive means that the source gave no clear call. Such entries were picked first, then a sample of the others. The call rests on the fitted dose curve; in most records, active means well fitted inhibition curve with a large enough effect in the signal ratio, with a control signal flat (not every such curve was filed as active); inconclusive means small, poorly fitted or top-dose-only effect, or effect the other way, or a change in a side signal; inactive means no such curve, though single readings can be large or run the other way; the % refers to the signal ratio. Where the call is inconclusive, the potency comes from a doubtful curve fit. “Side channel” marks fits to a control or component signal instead of the main read-out.
Target: Muscleblind-like protein 1 (Homo sapiens) (UniProt Q9NR56)
Experiment: qHTS Assay for Inhibitors of MBNL1-poly(CUG) RNA binding
Conditions: TR-FRET MBNL1-His/biotin-(CUG)12 binding, 665/545 ratio; series mostly up to 57.5 µM
How it was run: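 MBNL1-His + Biotin-(CUG)12, cpd titration 92 nM–58 uM; Tb anti-His Ab 0.055 ng/ul, SA-XL665 5 nM (final); 60 min RT; ratiometric 665/545 nm, Ex 340 nm; normalized to buffer and full-complex controls.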
Potency means the concentration at half of the fitted maximal effect; tags describe the fitted curve by direction and shape or compound fluorescence and quenching.

UniProt Q9NR56, sequence (Q9NR56 whole entry, looked up): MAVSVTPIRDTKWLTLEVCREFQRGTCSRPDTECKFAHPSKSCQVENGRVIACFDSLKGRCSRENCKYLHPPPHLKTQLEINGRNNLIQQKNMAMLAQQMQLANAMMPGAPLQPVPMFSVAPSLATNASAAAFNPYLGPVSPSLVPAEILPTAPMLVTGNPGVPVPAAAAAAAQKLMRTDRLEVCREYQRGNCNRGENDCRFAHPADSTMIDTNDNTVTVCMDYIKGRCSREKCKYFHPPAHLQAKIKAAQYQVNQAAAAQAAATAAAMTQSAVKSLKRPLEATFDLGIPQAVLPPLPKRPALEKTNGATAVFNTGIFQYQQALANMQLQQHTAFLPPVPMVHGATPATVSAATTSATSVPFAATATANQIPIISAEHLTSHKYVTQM

Which Potency does the source give for `O=C(NCc1ccco1)c1cc2cc3ccc(Cl)cc3nc2o1` here?
Its Potency is inconclusive: 22.4 µM [quencher, single point].

`Cc1ccc(CNc2ccc(N3C(=O)CC(C)C3=O)cc2[N+](=O)[O-])cc1` (stereo not given) was tested. Which Potency did it give?
The Potency was inconclusive: 35.5 µM [quencher, side channel, partial curve].

How did the Potency turn out when `O=C(NC1CC1)C1CCN(C2CCN(C(=O)Cc3ccc4c(c3)OCO4)CC2)CC1` was run?
The Potency was “inactive”.

With `O=[N+]([O-])c1ccc(Oc2ccc(/C=N/O)cc2)nc1` as the molecule, how does the Potency read?
Its Potency is inconclusive: 11.2 µM [quencher, side channel, partial curve].

How did the Potency turn out when `Cc1ccc(C(=O)NC2CCN(CC(=O)Nc3cccc([N+](=O)[O-])c3)CC2)cc1` was run?
The Potency was inconclusive: 14.1 µM [quencher, side channel, partial curve].

How did the Potency turn out when `COc1ccccc1N1CCN(C(=O)CSc2ncnc3c2cnn3-c2ccc(C)c(C)c2)CC1` was run?
Its Potency is inconclusive: 15.8 µM [quencher, side channel, partial curve].

`Clc1ccc(-c2nc3n(n2)Cc2ccccc2-3)cc1` was tested. Which Potency did it give?
Its Potency is inconclusive: 7.08 µM [fluorescent, side channel, single point].

With `O=C(N/N=C\c1ccc(Cl)s1)c1ccc(Cn2cccn2)o1` as the molecule, how does the Potency read?
The Potency was inconclusive: 20 µM [quencher, side channel, partial curve, poor fit].

With `CCn1nc(NS(=O)(=O)c2ccc(NC(C)=O)cc2)c2cc3cc(C)ccc3nc21` as the molecule, how does the Potency read?
The Potency was inconclusive: 15.8 µM [quencher, side channel, partial curve].

With `O=C(NC(Cc1ccccc1)C(=O)O)/C(=C/c1ccc([N+](=O)[O-])cc1)NC(=O)c1ccccc1` (stereo not given) as the molecule, how does the Potency read?
The Potency was inconclusive: 25.1 µM [quencher, partial curve].

For `O=C(c1cccs1)N1CCN(c2ccc([N+](=O)[O-])cc2F)CC1`, which Potency is on record?
The Potency was inconclusive: 17.8 µM [quencher, side channel, partial curve].

`COc1ccc(-c2csc(-c3cccs3)n2)cc1OC` was tested. Which Potency did it give?
Its Potency is inconclusive: 28.2 µM [quencher, single point].

With `Cc1cc(-c2ccc(S(=O)(=O)N3CCN(C)CC3)s2)on1` as the molecule, how does the Potency read?
Its Potency is inconclusive: 11.2 µM [quencher, side channel, partial curve].

For `CCC(Oc1ccccc1)C(=O)Nc1cc(C)on1` (stereo not given), which Potency is on record?
Its Potency is inconclusive: 1.78 µM [fluorescent, side channel, partial curve, poor fit].

For `CN(C)c1ccc(/C=N/N2C(=S)SC(C)(C)C2N(O)C(=O)Nc2ccc([N+](=O)[O-])cc2)cc1` (stereo not given), which Potency is on record?
Its Potency is inconclusive: 25.1 µM [quencher, side channel, single point].

From PubChem BioAssay AID2675 (National Center for Advancing Translational Sciences (NCATS), 2010)
